Changes are numbered by the printed parent chain. Results are given in words; binding and its absence hold for the method and conditions named. Some results given as binding are weak or reduced against the parent protein; the word gives no strength. Tags and fused reporters may be left off the sequences shown.
Experiments:
[1] = target: T1, GST-CBM (Ash1 Caf1 Binding Motif, 1582–1616) (fly) (UniProt Q9VW15); assay: pull-down; GST-Ash1 fragments held on GST resin; 200 µL of 0.1 mg/mL purified Caf1 added for 1 h; 150 mM NaCl, 50 mM Tris-HCl (8.0); bound proteins analysed by SDS-PAGE; both purified
T1 sequence: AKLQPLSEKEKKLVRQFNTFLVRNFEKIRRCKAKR

Protein sequences, listed by entry. Tags and fused reporters are not part of them. Lines headed by an entry give the natural chain unless they say otherwise; changes in a name come on top.
UniProt Q24572: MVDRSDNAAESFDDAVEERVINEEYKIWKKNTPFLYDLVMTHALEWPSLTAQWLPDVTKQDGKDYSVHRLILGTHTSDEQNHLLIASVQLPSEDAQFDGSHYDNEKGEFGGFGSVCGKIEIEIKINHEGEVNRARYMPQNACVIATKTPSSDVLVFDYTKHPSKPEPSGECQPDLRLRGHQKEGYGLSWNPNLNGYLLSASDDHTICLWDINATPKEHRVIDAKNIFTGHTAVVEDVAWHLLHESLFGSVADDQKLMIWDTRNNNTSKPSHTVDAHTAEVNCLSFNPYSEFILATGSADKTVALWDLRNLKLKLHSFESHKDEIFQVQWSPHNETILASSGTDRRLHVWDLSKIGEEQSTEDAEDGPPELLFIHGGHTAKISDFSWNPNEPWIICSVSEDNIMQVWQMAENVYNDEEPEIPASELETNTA

GST-CBM_(E1591A) (fly) = target: T2, GST-CBM_(E1591A) (fly) (UniProt Q9VW15); assay: as above
T2 sequence: T1 sequence with E10A

GST-CBM_(R1604A) (fly) = target: T3, GST-CBM_(R1604A) (fly) (UniProt Q9VW15); assay: as above
T3 sequence: T1 sequence with R23A

[2] = target: T4, 6× His-tagged Ash1 (1041–2226 a.a.) (fly) (UniProt Q9VW15); assay: co-purification (Ni-NTA, HiTrap Q HP, Superdex 200); His-tagged Ash1 (1041-2226), Mrg15 and Caf1 co-expressed in Sf9 cells; Ni-NTA with washes up to 1 M NaCl, tag cut by TEV, ion exchange and size exclusion in 300 mM NaCl, 50 mM Tris-HCl (8.0)
T4 sequence: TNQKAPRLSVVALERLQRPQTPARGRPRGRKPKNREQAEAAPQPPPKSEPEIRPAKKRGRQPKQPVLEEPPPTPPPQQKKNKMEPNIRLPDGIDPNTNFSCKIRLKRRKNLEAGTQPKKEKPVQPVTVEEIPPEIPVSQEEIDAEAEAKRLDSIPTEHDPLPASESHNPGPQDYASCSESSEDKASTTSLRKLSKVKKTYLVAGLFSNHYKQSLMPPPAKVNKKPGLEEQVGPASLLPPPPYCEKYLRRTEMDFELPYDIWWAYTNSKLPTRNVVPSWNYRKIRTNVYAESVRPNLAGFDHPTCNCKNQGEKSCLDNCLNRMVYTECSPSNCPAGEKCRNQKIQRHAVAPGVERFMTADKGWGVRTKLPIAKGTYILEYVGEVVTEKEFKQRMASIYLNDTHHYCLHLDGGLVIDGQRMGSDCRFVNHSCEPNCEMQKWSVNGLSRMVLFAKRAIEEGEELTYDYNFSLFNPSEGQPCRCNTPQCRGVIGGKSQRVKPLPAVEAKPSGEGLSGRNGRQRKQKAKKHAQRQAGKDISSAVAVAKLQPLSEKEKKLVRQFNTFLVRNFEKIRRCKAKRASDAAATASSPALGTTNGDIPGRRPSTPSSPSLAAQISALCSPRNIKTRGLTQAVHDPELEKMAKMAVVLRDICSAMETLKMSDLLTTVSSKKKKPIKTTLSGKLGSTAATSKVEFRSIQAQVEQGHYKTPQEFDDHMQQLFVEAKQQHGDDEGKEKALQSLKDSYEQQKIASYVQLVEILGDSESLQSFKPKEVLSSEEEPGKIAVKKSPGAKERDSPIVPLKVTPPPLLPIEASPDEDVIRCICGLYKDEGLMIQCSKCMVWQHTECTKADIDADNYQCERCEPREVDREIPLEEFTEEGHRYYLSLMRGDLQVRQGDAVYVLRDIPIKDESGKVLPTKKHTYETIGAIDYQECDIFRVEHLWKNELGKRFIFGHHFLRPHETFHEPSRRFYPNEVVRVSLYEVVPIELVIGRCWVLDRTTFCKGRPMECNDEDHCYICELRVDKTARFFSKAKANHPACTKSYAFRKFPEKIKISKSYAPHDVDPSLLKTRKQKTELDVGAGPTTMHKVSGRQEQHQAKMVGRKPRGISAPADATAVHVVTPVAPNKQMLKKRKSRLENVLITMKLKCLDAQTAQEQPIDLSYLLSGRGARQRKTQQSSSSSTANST

Substance: Fly Caf1 H4 binding pocket mutant (D362A/D365A) (from UniProt Q24572 1-430)
- binding [1]: no binding (tested: 200 µL of 0.1 mg/mL purified Caf1)

Substance: Fly Caf1 wild-type (from UniProt Q24572 1-430)
- binding (GST-CBM_(E1591A) (fly)): no binding (tested: 200 µL of 0.1 mg/mL purified Caf1)
- binding (GST-CBM_(R1604A) (fly)): no binding (tested: 200 µL of 0.1 mg/mL purified Caf1)

Substance: full-length Caf1 (subunit of the AMC complex) (from UniProt Q24572 1-430)
- binding [2]: binds
